# Source: the supplement of paper PMC3334620
# In all, about 33,000 sequences were measured (“E-score (-0.5 to 0.5)”: median about -0.016, highest 2% from about 0.32 on). The list shows a part of the results.
# Target: T1, Stp1 (UniProt B3LFK1)
# T1 sequence: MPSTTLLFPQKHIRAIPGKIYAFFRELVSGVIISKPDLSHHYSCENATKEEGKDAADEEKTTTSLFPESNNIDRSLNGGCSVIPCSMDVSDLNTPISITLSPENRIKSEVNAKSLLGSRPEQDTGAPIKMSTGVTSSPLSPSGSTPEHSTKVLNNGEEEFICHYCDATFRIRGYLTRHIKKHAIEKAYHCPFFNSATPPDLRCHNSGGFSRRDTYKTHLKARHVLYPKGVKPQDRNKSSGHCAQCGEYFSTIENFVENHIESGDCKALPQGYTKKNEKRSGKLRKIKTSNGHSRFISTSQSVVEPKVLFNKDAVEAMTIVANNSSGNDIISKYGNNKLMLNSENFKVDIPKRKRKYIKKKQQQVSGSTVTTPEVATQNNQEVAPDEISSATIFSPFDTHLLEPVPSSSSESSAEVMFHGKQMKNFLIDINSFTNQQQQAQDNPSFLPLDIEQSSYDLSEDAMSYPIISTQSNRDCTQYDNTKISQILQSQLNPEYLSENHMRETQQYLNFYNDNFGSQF
# Experiment: PBM E-score (8-mer binding enrichment) (E-score (-0.5 to 0.5)); higher = stronger / more preferred TF binding; most listed sequences are background and not binding sites
# Conditions: protein concentration: 200 nM; construct: GST-full length
# Outline: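 Detection of bound protein used fluorescent anti-GST, with scans normalised by masliner. The proteins were GST-tagged yeast transcription factors applied at about 100-200 nM to universal all-10-mer Agilent arrays made double-stranded by primer extension. Each ungapped eight-base word, pooled with its reverse complement, was scored with an E-score from the Universal PBM Analysis Suite.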
row,Sequence,PBM E-score
1,GACGGCGC,0.451
2,AACTAGAT,0.128
3,CGCTGCGC,-0.0335
4,AAGTCGAA,-0.227
5,ATCAATAA,0.169
6,CGTCAAAC,0.048
7,AACCGCTA,-0.174
8,AACCAATT,0.0149
9,AAGCTAGT,-0.223
10,GCTGTCCA,0.0285
11,CTTTGAAA,0.129
12,TCAGTCCA,-0.327
13,CGGCAGTC,0.297
14,CGGCGGCA,0.418
15,TATAGCCA,0.108
16,CCAGTTCC,-0.17
17,AAACCTTT,0.0309
18,AAAGATCT,-0.138
19,TACTTATA,0.11
20,TAATTTGA,-0.0521
21,CATGTCGA,0.0774
22,CGCATCAC,0.0369

row,Sequence,PBM E-score
1,ATACGTTG,-0.144
2,TCCGGCCA,-0.135
3,ATCTCGCC,0.122
4,AGTCTGTC,-0.121
5,ACTAGTGG,-0.268
6,TCGCCGCA,0.448
7,CGACGCAA,-0.139
8,ATAGCAAC,0.0551
9,AAGAGGGA,-0.254
10,AGGTGTGA,-0.246
11,AGAGACGG,0.0667
12,CCTCGTAA,0.108
13,AGCGATAG,-0.247
14,CCATGTTA,-0.0633
15,CGCAGGCG,0.202
16,ACGAGACC,-0.227
17,CCAGTTTA,-0.13
18,AACTTCTA,0.0296
19,ACAGAGAG,-0.265
20,TAATACCA,0.0826
21,AGCGTCGG,-0.0333
22,GCGGTCAC,-0.136

row,Sequence,PBM E-score
1,AGGTCACA,-0.173
2,AATGACAA,0.0544
3,CAGGGCGG,-0.116
4,AACAACGA,-0.0516
5,AGGACCTA,-0.0221
6,TAGGCGAA,0.0312
7,CGAGGTGA,0.0486
8,CCATGGGG,0.0247
9,CACTCCCC,-0.116
10,GGAATCTA,-0.0385
11,AAATAGTC,-0.157
12,GAGAAGGC,0.147
13,AGCCAATA,-0.0625
14,CACTCTGG,-0.0124
15,CGTACTTA,0.0887
16,CAACCGCA,-0.0953
17,ATGATCTC,-0.0101
18,CACCACCC,-0.0675
19,AAGCTCGC,-0.0559
20,CGTGAGTA,0.131
21,AACTTGGG,-0.0701
22,GACCGCCA,-0.0648

row,Sequence,PBM E-score
1,CAACTAGG,-0.0204
2,ATACATCC,0.00593
3,CAATTTCC,0.0523
4,GATGCAGC,0.0208
5,AGGCCGAT,0.0722
6,AATCCATT,0.101
7,AACTTCCA,0.00271
8,AGCGCTGG,-0.0981
9,TATGTCCA,-0.152
10,GCAGCAAC,0.0851
11,GGTGCAGA,-0.169
12,CGGGAGCA,-0.132
13,CACTTTGC,0.0646
14,ATGAACCC,-0.1
15,CACCAAAG,0.204
16,CTACCTGA,-0.181
17,AGACCCAT,-0.305
18,ACGGAGAA,0.0734
19,CCGTCTTC,0.0653
20,AATTGCCT,0.0817
